The text below walks through data of the supplement of paper PMC10338343.

± gives the standard deviation. Only a part is listed here, and it is no random draw.
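Further: 1 nM active piRISC with 0.1 nM target library at 33 °C single turnover.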

For the assay, the system named is MIWI (PIWIL1) piRISC loaded with piRNA #1 (30 nt). Briefly: pre-steady-state target cleavage rate (min^-1); MIWI and MILI are mouse PIWI proteins and EfPiwi is from a freshwater sponge; tags in brackets are library labels; higher = faster piRNA-guided slicing of the target. The following applies: guide: piRNA #1 5'p-UGAGGUAGUAGGUUGUAUAGUAUCCAGAGG; auxiliary factor: 500 nM mouse GTSF1. The gist of the method: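 Cleave-'n-Seq measured uncleaved targets by sequencing after a transcribed, DNA-blocked target RNA library […] was mixed with 1 nM active affinity-purified piRISC holding one synthetic guide, with or without 500 nM GTSF1 partner protein, at 33 °C in HEPES–potassium acetate buffer for 0–8 or 0–960 min. Counts were normalised to depth and to weakly complementary targets, three trials were pooled, and k3 was capped at 0.0001 min^-1. A burst-and-steady-state fit gave the pre-steady-state cleavage rate.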
Take GGAGACCUAUGAUAUGUUGCUUGAACCUCA: the “pre-steady-state target cleavage rate” value is under 0.0001.
On to GGAGACCAUACUAUACUACCAACUACCUCA, for which the “pre-steady-state target cleavage rate” value came out at 0.00977 ± 0.0019.
Take GCUCUGGAUACUAAACAACCUACUACCUGA: the “pre-steady-state target cleavage rate” value is 0.803 ± 0.11.
With CCUCUGGAUAGAAUACAACCUACUACCUCA, the “pre-steady-state target cleavage rate” value turned out to be 1.24 ± 0.066.
Take GGACAGGAUACUAUACAACCUACUUCCUCA: the “pre-steady-state target cleavage rate” value was 0.0423 ± 0.013.
With GGAGAGGAUACUAUACAACCUACUACGAGA, the “pre-steady-state target cleavage rate” value came to 0.0895 ± 0.04.
For GCUCUGCAUACUAUACAACCUAGUACCUCA, the “pre-steady-state target cleavage rate” value came to 0.689 ± 0.11.
The value for GGAGACCAAACUAUACAACCUUCUACCUCA was 0.212 ± 0.027; that for GGAGACCUUACUAUAGAACCUAGUACCUCA was 0.0376 ± 0.0082.
Take GGAGACCUAUCUAUUCAACCUAGUACCUCA: the “pre-steady-state target cleavage rate” value was 0.0592 ± 0.013.
In the case of CCUCUGGAUACUAUAGCAACCUACUACCUCA, the “pre-steady-state target cleavage rate” value came out at 1.35 ± 0.11.
Take GGAGACCUUACUAUACAACGUACUACGUCA: the “pre-steady-state target cleavage rate” value turned out to be 0.377 ± 0.052.
For GGAGACCUUACUAUACAAGCUAGUACCUCA, the “pre-steady-state target cleavage rate” value was 0.471 ± 0.033.
On to GGAGUGCAUACUAAACAACCUACUACCUCA, for which the “pre-steady-state target cleavage rate” value was 1.26 ± 0.099.
For the sequence GCUCUGGAUACUACACAACCUACUACCUCA, the “pre-steady-state target cleavage rate” value was 1.89 ± 0.095.
On to GGAGACCUAUGUAUACAACCUACUACCGCA, for which the “pre-steady-state target cleavage rate” value stood at 0.142 ± 0.022.
The value for GGAGACCAUACUUUACAACCAACUACCUCA was 0.178 ± 0.039; that for GGAGACCUAUCUAUACAAUCUACUACCUCA was 0.214 ± 0.016; that for GCUCUGGAUACUUUACAUCCUACUACCUCA was 1.54 ± 0.096.
For GGAGUGGAAACUAUACAACCUUCUACCUCA, the “pre-steady-state target cleavage rate” value is 0.594 ± 0.031.
For CCUCUGGAUACUAUUCUACCUACUACCUCA the value was 1.23 ± 0.095; for GGAGACCUAACUAUACUACCUACAACCUCA, 0.00419 ± 0.0032; for GGAGACGAUACUUUACAAGCUACUACCUCA, 0.987 ± 0.062.
As for GGACUGGAUACUAUACCAACCUACUACCUCA, the “pre-steady-state target cleavage rate” value was found to be 0.0343 ± 0.012.
